# Laboratory results from the supplement of paper PMC8728848.
# The list shows a part of the results.
# B1: DC-ASGPR S+GEE (Homo sapiens) (protein)
# chain: MTRTYENFQYLENKVKVQGFKNGPLPLQSLLQRLRSGPCHLLLSLGLGLLLLVIICVVGFQNSKFQRDLVTLRTDFSNFTSNTVAEIQALTSQGSSLEETIASLKAEVEGFKQERQAVHSEMLLRVQQLVQDLKKLTCQVATINNNGEEASTEGTCCPVNWVEHQDSCYWFSHSGMSWAEAEKYCQLKNAHLVVINSREEQNFVQKYLGSAYTWMGLSDPEGAWKWVDGTDYATGFQNWKPGQPDDWQGHGLGGGEDCAHFHPDGRWNDDVCQRPYHWVCEAGLGQTSQESH
# Legend:
# Test in all cases: glycan array binding signal (z-score within array); higher = stronger binding
# Conditions in all cases: glycan notation: IUPAC condensed, linker removed
# [1] = molecular target: Neu5Ac(a2-6)Gal(b1-4)GlcNAc(b1-2)Man(a1-3)[Man(a1-6)]Man(b1-4)GlcNAc(b1-4)GlcNAc
# Summary of the method: (§1)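 From the Consortium for Functional Glycomics database, 3228 arrays were curated, keeping only those whose protein sequence was available. Binding is given as a within-array Z-score averaged across arrays sharing a protein sequence and across linkers. Negative Z-scores can be read as non-binding.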
# [2] = molecular target: Neu5Ac(a2-6)Gal(b1-4)GlcNAc(b1-2)Man(a1-3)[Neu5Ac(a2-3)Gal(b1-4)GlcNAc(b1-2)Man(a1-6)]Man(b1-4)GlcNAc(b1-4)GlcNAc
# Summary of the method: as §1
# [3] = molecular target: Neu5Ac(a2-6)Gal(b1-4)GlcNAc(b1-2)Man(a1-3)[Neu5Ac(a2-6)Gal(b1-4)GlcNAc(b1-2)Man(a1-6)]Man(b1-4)GlcNAc(b1-4)GlcNAc
# Summary of the method: as §1
# [4] = molecular target: Neu5Ac(a2-6)Gal(b1-4)GlcNAc(b1-2)Man(a1-3)[Neu5Ac(a2-6)Gal(b1-4)GlcNAc(b1-2)Man(a1-6)]Man(b1-4)GlcNAc(b1-4)[Fuc(a1-6)]GlcNAc
# Summary of the method: as §1
# [5] = molecular target: Neu5Ac(a2-6)Gal(b1-4)GlcNAc(b1-2)Man(a1-6)Man(b1-4)GlcNAc(b1-4)GlcNAc
# Summary of the method: as §1
# [6] = molecular target: Neu5Ac(a2-6)Gal(b1-4)GlcNAc(b1-2)Man(a1-6)[Gal(b1-4)GlcNAc(b1-2)Man(a1-3)]Man(b1-4)GlcNAc(b1-4)GlcNAc
# Summary of the method: as §1
# [7] = molecular target: Neu5Ac(a2-6)Gal(b1-4)GlcNAc(b1-2)Man(a1-6)[GlcNAc(b1-2)Man(a1-3)]Man(b1-4)GlcNAc(b1-4)GlcNAc
# Summary of the method: as §1
# [8] = molecular target: Neu5Ac(a2-6)Gal(b1-4)GlcNAc(b1-2)Man(a1-6)[Man(a1-3)]Man(b1-4)GlcNAc(b1-4)GlcNAc
# Summary of the method: as §1
# [9] = molecular target: Neu5Ac(a2-6)Gal(b1-4)GlcNAc(b1-2)[Neu5Ac(a2-6)Gal(b1-4)GlcNAc(b1-4)]Man(a1-3)[GlcNAc(b1-4)][Neu5Ac(a2-6)Gal(b1-4)GlcNAc(b1-2)[Neu5Ac(a2-6)Gal(b1-4)GlcNAc(b1-6)]Man(a1-6)]Man(b1-4)GlcNAc(b1-4)GlcNAc
# Summary of the method: as §1
# [10] = molecular target: Neu5Ac(a2-6)Gal(b1-4)GlcNAc(b1-2)[Neu5Ac(a2-6)Gal(b1-4)GlcNAc(b1-4)]Man(a1-3)[GlcNAc(b1-4)][Neu5Ac(a2-6)Gal(b1-4)GlcNAc(b1-4)Man(a1-6)]Man(b1-4)GlcNAc(b1-4)GlcNAc
# Summary of the method: as §1
# [11] = molecular target: Neu5Ac(a2-6)Gal(b1-4)GlcNAc(b1-2)[Neu5Ac(a2-6)Gal(b1-4)GlcNAc(b1-6)]Man(a1-6)[Neu5Ac(a2-6)Gal(b1-4)GlcNAc(b1-2)Man(a1-3)][GlcNAc(b1-4)]Man(b1-4)GlcNAc(b1-4)GlcNAc
# Summary of the method: as §1
# [12] = molecular target: Neu5Ac(a2-6)Gal(b1-4)GlcNAc(b1-3)Gal(b1-3)GlcNAc
# Summary of the method: as §1
# [13] = molecular target: Neu5Ac(a2-6)Gal(b1-4)GlcNAc(b1-3)Gal(b1-4)GlcNAc
# Summary of the method: as §1
# [14] = molecular target: Neu5Ac(a2-6)Gal(b1-4)GlcNAc(b1-3)Gal(b1-4)GlcNAc(b1-2)Man(a1-3)[Neu5Ac(a2-6)Gal(b1-4)GlcNAc(b1-3)Gal(b1-4)GlcNAc(b1-2)Man(a1-6)]GalNAc
# Summary of the method: as §1
# [15] = molecular target: Neu5Ac(a2-6)Gal(b1-4)GlcNAc(b1-3)Gal(b1-4)GlcNAc(b1-3)Gal(b1-4)GlcNAc
# Summary of the method: as §1
# [16] = molecular target: Neu5Ac(a2-6)Gal(b1-4)GlcNAc(b1-3)Gal(b1-4)GlcNAc(b1-3)Gal(b1-4)GlcNAc(b1-2)Man(a1-3)[Neu5Ac(a2-6)Gal(b1-4)GlcNAc(b1-3)Gal(b1-4)GlcNAc(b1-3)Gal(b1-4)GlcNAc(b1-2)Man(a1-6)]GalNAc
# Summary of the method: as §1
# [17] = molecular target: Neu5Ac(a2-6)Gal(b1-4)GlcNAc(b1-3)Gal(b1-4)GlcNAc(b1-3)GalNAc
# Summary of the method: as §1
# [18] = molecular target: Neu5Ac(a2-6)Gal(b1-4)GlcNAc(b1-3)Gal(b1-4)GlcNAc(b1-3)[Neu5Ac(a2-6)Gal(b1-4)GlcNAc(b1-3)Gal(b1-4)GlcNAc(b1-6)]GalNAc
# Summary of the method: as §1
# [19] = molecular target: Neu5Ac(a2-6)Gal(b1-4)GlcNAc(b1-3)Gal(b1-4)GlcNAc(b1-6)[Gal(b1-3)]GalNAc
# Summary of the method: as §1
# [20] = molecular target: Neu5Ac(a2-6)Gal(b1-4)GlcNAc(b1-3)Gal(b1-4)[Fuc(a1-3)]GlcNAc(b1-3)Gal(b1-4)[Fuc(a1-3)]GlcNAc
# Summary of the method: as §1
# [21] = molecular target: Neu5Ac(a2-6)Gal(b1-4)GlcNAc(b1-3)GalNAc
# Summary of the method: as §1
# [22] = molecular target: Neu5Ac(a2-6)Gal(b1-4)GlcNAc(b1-3)[Neu5Ac(a2-6)Gal(b1-4)GlcNAc(b1-6)]GalNAc
# Summary of the method: as §1
# [23] = molecular target: Neu5Ac(a2-6)Gal(b1-4)GlcNAc(b1-6)GalNAc
# Summary of the method: as §1
# [24] = molecular target: Neu5Ac(a2-6)Gal(b1-4)GlcNAc(b1-6)[Gal(b1-3)GlcNAc(b1-3)]Gal(b1-4)Glc
# Summary of the method: as §1
# [25] = molecular target: Neu5Ac(a2-6)Gal(b1-4)GlcNAc(b1-6)[Gal(b1-3)]GalNAc
# Summary of the method: as §1
# [26] = molecular target: Neu5Ac(a2-6)Gal(b1-4)GlcNAc6S
# Summary of the method: as §1
# Neu5Ac(a2-6)GalNAc = molecular target: Neu5Ac(a2-6)GalNAc
# Summary of the method: as §1
# [27] = molecular target: Neu5Ac(a2-6)GalNAc(b1-4)GlcNAc
# Summary of the method: as §1
# [28] = molecular target: Neu5Ac(a2-6)GalNAc(b1-4)GlcNAc6S
# Summary of the method: as §1
# [29] = molecular target: Neu5Ac(a2-6)GlcNAc(b1-4)GlcNAc
# Summary of the method: as §1
# [30] = molecular target: Neu5Ac(a2-6)GlcNAc(b1-4)GlcNAc(b1-4)GlcNAc
# Summary of the method: as §1
binder,measurement,setting,value
B1,glycan array binding signal (z-score),[1],-0.375
same,glycan array binding signal (z-score),[2],-0.343
same,glycan array binding signal (z-score),[3],-0.214
same,glycan array binding signal (z-score),[4],-0.339
same,glycan array binding signal (z-score),[5],-0.301
same,glycan array binding signal (z-score),[6],-0.355
same,glycan array binding signal (z-score),[7],-0.093
same,glycan array binding signal (z-score),[8],-0.301
same,glycan array binding signal (z-score),[9],-1.23
same,glycan array binding signal (z-score),[10],-0.321
same,glycan array binding signal (z-score),[11],-0.317
same,glycan array binding signal (z-score),[12],-0.335
same,glycan array binding signal (z-score),[13],-0.326
same,glycan array binding signal (z-score),[14],-0.238
same,glycan array binding signal (z-score),[15],-0.332
same,glycan array binding signal (z-score),[16],0.132
same,glycan array binding signal (z-score),[17],-1.4
same,glycan array binding signal (z-score),[18],-0.267
same,glycan array binding signal (z-score),[19],-0.042
same,glycan array binding signal (z-score),[20],-0.251
same,glycan array binding signal (z-score),[21],0.361
same,glycan array binding signal (z-score),[22],0.135
same,glycan array binding signal (z-score),[23],-0.245
same,glycan array binding signal (z-score),[24],-0.047
same,glycan array binding signal (z-score),[25],-0.36
same,glycan array binding signal (z-score),[26],-0.325
same,glycan array binding signal (z-score),Neu5Ac(a2-6)GalNAc,1.48
same,glycan array binding signal (z-score),[27],0.853
same,glycan array binding signal (z-score),[28],0.608
same,glycan array binding signal (z-score),[29],-0.303
same,glycan array binding signal (z-score),[30],-0.324
